Among all 310,000 compounds or so, about 14,000 (4.5%) showed an effect of 50% or more. The effect is printed as a negative number. Some of the results follow.
Target: human ether-à-go-go-related gene (hERG) potassium channel (human, UniProt Q12809)
Assay: primary screen, population patch clamp on CHO cells stably expressing hERG
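Also: peak tail current of the secondary pulse compared with the same well before compound.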

Chain of human ether-à-go-go-related gene (hERG) potassium channel (Q12809 whole entry, looked up): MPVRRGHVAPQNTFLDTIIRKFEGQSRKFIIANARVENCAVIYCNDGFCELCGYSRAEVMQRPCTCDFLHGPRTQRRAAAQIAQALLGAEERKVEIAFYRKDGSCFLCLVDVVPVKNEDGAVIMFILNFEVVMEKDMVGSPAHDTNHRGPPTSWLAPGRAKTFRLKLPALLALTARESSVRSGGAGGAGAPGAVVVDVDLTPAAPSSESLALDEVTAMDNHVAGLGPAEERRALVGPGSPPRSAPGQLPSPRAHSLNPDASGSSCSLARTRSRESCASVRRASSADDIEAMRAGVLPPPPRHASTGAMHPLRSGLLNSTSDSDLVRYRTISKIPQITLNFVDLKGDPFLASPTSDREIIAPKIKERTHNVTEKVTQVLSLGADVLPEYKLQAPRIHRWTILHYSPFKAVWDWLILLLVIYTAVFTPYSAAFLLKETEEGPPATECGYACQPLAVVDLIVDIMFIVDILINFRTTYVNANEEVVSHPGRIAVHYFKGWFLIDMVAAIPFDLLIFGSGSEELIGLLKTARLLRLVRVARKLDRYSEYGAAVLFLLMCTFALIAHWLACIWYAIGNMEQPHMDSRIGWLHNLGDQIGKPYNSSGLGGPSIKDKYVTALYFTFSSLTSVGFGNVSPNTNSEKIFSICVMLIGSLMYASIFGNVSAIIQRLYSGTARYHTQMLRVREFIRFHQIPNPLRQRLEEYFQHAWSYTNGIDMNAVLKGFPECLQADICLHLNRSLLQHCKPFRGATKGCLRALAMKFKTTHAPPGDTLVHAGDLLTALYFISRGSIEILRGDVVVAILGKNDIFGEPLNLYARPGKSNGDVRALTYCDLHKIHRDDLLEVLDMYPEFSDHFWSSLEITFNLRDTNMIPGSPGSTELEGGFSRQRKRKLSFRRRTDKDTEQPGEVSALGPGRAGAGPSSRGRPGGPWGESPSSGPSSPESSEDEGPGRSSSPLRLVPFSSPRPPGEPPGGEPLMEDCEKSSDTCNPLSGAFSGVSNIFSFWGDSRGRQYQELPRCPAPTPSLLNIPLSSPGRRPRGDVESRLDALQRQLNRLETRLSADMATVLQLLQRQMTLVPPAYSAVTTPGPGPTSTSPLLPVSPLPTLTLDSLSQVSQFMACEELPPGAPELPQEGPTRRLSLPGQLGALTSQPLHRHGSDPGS

**Q.** With `Cc1ccc(N2C(=O)[C@@H]3[C@H](C2=O)C2c4ccccc4C=NN2[C@@H]3C(=O)c2ccc(Cl)cc2)cc1` (some centres unmarked) as the molecule, how does the “hERG current change (%, negative = inhibition) at 10uM” value read?
**A.** 9.94%

**Q.** For `O=S(=O)(Nc1ccc(N2CCCCC2)cc1)c1cccs1`, which “hERG current change (%, negative = inhibition) at 10uM” value is on record?
**A.** -6.8%

**Q.** Which “hERG current change (%, negative = inhibition) at 10uM” value does the source give for `Cc1ccc(NC(=O)CSc2nnc(-c3n[nH]c4ccccc34)n2-c2ccccc2)c(C)c1` here?
**A.** 17.1%

**Q.** With `C=CCN(c1ccc(C(=O)Nc2ccc(C)c(C)c2)cc1)S(C)(=O)=O` as the molecule, how does the “hERG current change (%, negative = inhibition) at 10uM” value read?
**A.** -7.62%

**Q.** With `CC1CCN(CCCCOc2ccc(C(=O)c3ccccc3)cc2)CC1.O=C(O)C(=O)O` as the molecule, how does the “hERG current change (%, negative = inhibition) at 10uM” value read?
**A.** -77%

**Q.** For `Cc1ccc(Sc2sc(=O)n(C)c2S(=O)(=O)c2ccc(C)cc2)cc1`, which “hERG current change (%, negative = inhibition) at 10uM” value is on record?
**A.** 5.44%

**Q.** For `Cc1cc(=O)[nH]c(-c2ccccc2)n1`, which “hERG current change (%, negative = inhibition) at 10uM” value is on record?
**A.** 20%

**Q.** How did the “hERG current change (%, negative = inhibition) at 10uM” value turn out when `C=CCn1c(C(C)NC(=O)c2cccc(C)c2)n[nH]c1=S` (centres unmarked) was run?
**A.** 18.7%

**Q.** `O=C(CCCOc1ccccc1)Nc1ccc2c(c1)OCCO2` was tested. Which “hERG current change (%, negative = inhibition) at 10uM” value did it give?
**A.** 14%

**Q.** With `Cc1oc(-c2cccc(Cl)c2)nc1CN1CCC(C(=O)N2CCN(c3ccccc3F)CC2)CC1` as the molecule, how does the “hERG current change (%, negative = inhibition) at 10uM” value read?
**A.** -69.1%

**Q.** How did the “hERG current change (%, negative = inhibition) at 10uM” value turn out when `COC(=O)c1cnc(Nc2ccc(Cl)cc2)c([N+](=O)[O-])c1` was run?
**A.** 13.1%

**Q.** How did the “hERG current change (%, negative = inhibition) at 10uM” value turn out when `C=CCn1c(O)c(C=Nc2ccc(N(CC)CC)cc2)c(=O)[nH]c1=O` was run?
**A.** -7.13%

**Q.** `Cc1ccc(NC(=O)COC(=O)c2ccc(S(=O)(=O)N3CCCCC3)cc2)cc1` was tested. Which “hERG current change (%, negative = inhibition) at 10uM” value did it give?
**A.** 8.88%

**Q.** `Cc1nn(-c2ccccc2)c(Cl)c1/C=C/C(=O)c1ccccc1` was tested. Which “hERG current change (%, negative = inhibition) at 10uM” value did it give?
**A.** -10.4%

**Q.** Which “hERG current change (%, negative = inhibition) at 10uM” value does the source give for `CCCn1c(SCC(=O)c2cc(C)c(C)cc2C)n[nH]c1=O` here?
**A.** 2.15%

**Q.** How did the “hERG current change (%, negative = inhibition) at 10uM” value turn out when `Cc1ccc(CN(Cc2ccco2)S(=O)(=O)c2ccc(S(=O)(=O)NCC3CCCO3)cc2)cc1` (centres unmarked) was run?
**A.** 15.1%

**Q.** For `Cc1cc(NS(=O)(=O)c2ccc(NC(=O)COc3ccccc3C(C)C)cc2)no1`, which “hERG current change (%, negative = inhibition) at 10uM” value is on record?
**A.** 18.7%

**Q.** How did the “hERG current change (%, negative = inhibition) at 10uM” value turn out when `O=C(COc1cccc2ccccc12)N/N=C/c1ccco1` was run?
**A.** -5.35%

**Q.** With `COc1ccc(N2CC(C(=O)NCCCN3CCOCC3)CC2=O)cc1` (centres unmarked) as the molecule, how does the “hERG current change (%, negative = inhibition) at 10uM” value read?
**A.** -7.87%

**Q.** With `Cc1onc(-c2ccccc2Cl)c1C(=O)N1CCN(C)CC1` as the molecule, how does the “hERG current change (%, negative = inhibition) at 10uM” value read?
**A.** 20.2%

**Q.** For `CCOC(=O)c1cc(-c2ccc(Cl)cc2)nc2c1c(C)nn2CCC#N`, which “hERG current change (%, negative = inhibition) at 10uM” value is on record?
**A.** 9.9%

**Q.** How did the “hERG current change (%, negative = inhibition) at 10uM” value turn out when `Cc1ccc(-c2cccc(OC(=O)c3ccccc3F)c2)cc1` was run?
**A.** 5.02%

**Q.** Which “hERG current change (%, negative = inhibition) at 10uM” value does the source give for `Cc1ccc(C)c(NS(=O)(=O)c2cc(Br)cnc2N)c1` here?
**A.** 9.19%

**Q.** For `O=C(COC(=O)/C=C/c1ccccc1[N+](=O)[O-])Nc1ccc(OC(F)F)cc1`, which “hERG current change (%, negative = inhibition) at 10uM” value is on record?
**A.** -5.14%

**Q.** For `CC(C)(C)C(=O)NNC(=O)c1cnccn1`, which “hERG current change (%, negative = inhibition) at 10uM” value is on record?
**A.** 3.29%

**Q.** `CCC1(C)OC(=O)NN(c2ccc(C)cc2)C1(C)O` (centres unmarked) was tested. Which “hERG current change (%, negative = inhibition) at 10uM” value did it give?
**A.** 3.34%

**Q.** How did the “hERG current change (%, negative = inhibition) at 10uM” value turn out when `C=CCC12C=C(OC)C(=O)OC(OC)(C1O)[C@H](c1ccc3c(c1)OCO3)[C@H]2C` (some centres unmarked) was run?
**A.** 12.8%

**Q.** For `CC(C)CCNC(=O)C1CCC(CNc2c(N3CCCC3)c(=O)c2=O)CC1` (centres unmarked), which “hERG current change (%, negative = inhibition) at 10uM” value is on record?
**A.** 2.2%

**Q.** How did the “hERG current change (%, negative = inhibition) at 10uM” value turn out when `Cc1ccc2[nH]c(=O)c(CN(CCc3ccccc3)C(=O)N3CCOCC3)cc2c1` was run?
**A.** -13.6%

**Q.** `Cc1csc(SCC(=O)NC(=O)c2ccccc2)n1` was tested. Which “hERG current change (%, negative = inhibition) at 10uM” value did it give?
**A.** 4.09%

**Q.** Which “hERG current change (%, negative = inhibition) at 10uM” value does the source give for `CCN1CCN(C(=O)N(c2ccccc2)c2ccccc2)CC1` here?
**A.** 11.9%

**Q.** Which “hERG current change (%, negative = inhibition) at 10uM” value does the source give for `FC(F)(F)c1cnc(Nc2ccc(N3CCOCC3)cc2)c(Cl)c1` here?
**A.** -23.5%

**Q.** How did the “hERG current change (%, negative = inhibition) at 10uM” value turn out when `CC1CC(C)CN(S(=O)(=O)N2CCCC(C(=O)NC3CCCCC3)C2)C1` (centres unmarked) was run?
**A.** 18.4%

**Q.** Which “hERG current change (%, negative = inhibition) at 10uM” value does the source give for `Nn1c(SCC(=O)Nc2ccc(S(=O)(=O)N3CCCC3)cc2)nnc1C(F)(F)F` here?
**A.** 15.6%

**Q.** `CCc1ccc(-c2nnn(CCC#N)n2)cc1` was tested. Which “hERG current change (%, negative = inhibition) at 10uM” value did it give?
**A.** 15.4%

**Q.** How did the “hERG current change (%, negative = inhibition) at 10uM” value turn out when `O=C(Nc1cccc(-c2ccccc2)c1)N1CCN(C(=O)Nc2cccc(-c3ccccc3)c2)CC1` was run?
**A.** 13.4%

**Q.** How did the “hERG current change (%, negative = inhibition) at 10uM” value turn out when `COc1ccc(CNC(=O)C(Cc2ccccc2)n2cccc2)cc1` (centres unmarked) was run?
**A.** -9.11%

**Q.** For `COC(=O)c1sccc1NC(=O)COc1cccc(C)c1`, which “hERG current change (%, negative = inhibition) at 10uM” value is on record?
**A.** 8.18%

**Q.** With `CCC12CN3CC(CC)(CN(C1)C3c1ccc(OC(C)C)cc1)C2=O` (centres unmarked) as the molecule, how does the “hERG current change (%, negative = inhibition) at 10uM” value read?
**A.** -8.41%

**Q.** `CCC(=O)NC(=S)Nc1cccc(NC(=O)CC)c1` was tested. Which “hERG current change (%, negative = inhibition) at 10uM” value did it give?
**A.** 12.1%

**Q.** `CC(=O)NC(=S)Nc1ccc(NC(=S)NC(=O)c2cccs2)cc1` was tested. Which “hERG current change (%, negative = inhibition) at 10uM” value did it give?
**A.** 14.7%

**Q.** For `CC(C)[C@H](NC(=O)[C@@H]1Cc2ccccc2CN1C(=O)OC(C)(C)C)C(=O)NCC1CCCO1` (some centres unmarked), which “hERG current change (%, negative = inhibition) at 10uM” value is on record?
**A.** 5.38%

**Q.** For `Cc1cc(N/C=C2\CCCCC2=O)no1`, which “hERG current change (%, negative = inhibition) at 10uM” value is on record?
**A.** 14.2%

**Q.** With `CCCCCN(C(=O)COC(=O)Cc1c(C)nc2ccccc2c1C)c1c(N)n(CCCC)c(=O)[nH]c1=O` as the molecule, how does the “hERG current change (%, negative = inhibition) at 10uM” value read?
**A.** -11%

Source: paper PMC4336329 (PLoS ONE, 2015)
